# The list shows a part of the results.
# Key:
# Assay in all cases: glycan array binding signal (z-score within array); higher = stronger binding
# Conditions in all cases: glycan notation: IUPAC condensed, linker removed
# [1] = molecular target: Gal3S(b1-4)[Fuc(a1-3)]Glc
# In short: (§1)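 From the Consortium for Functional Glycomics database, 3228 arrays were curated, keeping only those whose protein sequence was available. Binding is given as a within-array Z-score averaged across arrays sharing a protein sequence and across linkers. Negative Z-scores can be read as non-binding.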
# [2] = molecular target: Gal3S(b1-4)[Fuc(a1-3)]Glc6S
# In short: as §1
# [3] = molecular target: Gal3S4S(b1-4)GlcNAc
# In short: as §1
# [4] = molecular target: Gal3S6S(b1-4)GlcNAc
# In short: as §1
# [5] = molecular target: Gal3S6S(b1-4)GlcNAc6S
# In short: as §1
# [6] = molecular target: Gal4S(b1-4)GlcNAc
# In short: as §1
# [7] = molecular target: Gal4S6S(b1-4)GlcNAc
# In short: as §1
# [8] = molecular target: Gal6S(b1-4)Glc
# In short: as §1
# [9] = molecular target: Gal6S(b1-4)Glc6S
# In short: as §1
# [10] = molecular target: Gal6S(b1-4)GlcNAc
# In short: as §1
# [11] = molecular target: Gal6S(b1-4)GlcNAc6S
# In short: as §1
# [12] = molecular target: GalNAc(a1-3)Gal
# In short: as §1
# [13] = molecular target: GalNAc(a1-3)GalNAc
# In short: as §1
# [14] = molecular target: GalNAc(a1-3)GalNAc(a1-3)Gal(a1-4)Gal(b1-4)GlcNAc
# In short: as §1
# [15] = molecular target: GalNAc(b1-3)Gal
# In short: as §1
# [16] = molecular target: GalNAc(b1-3)Gal(a1-4)Gal(b1-4)GlcNAc
# In short: as §1
# [17] = molecular target: GalNAc(b1-3)Gal(a1-4)Gal(b1-4)GlcNAc(b1-3)Gal(b1-4)Glc
# In short: as §1
# [18] = molecular target: GalNAc(b1-3)Gal(a1-6)Gal(b1-4)Glc
# In short: as §1
# [19] = molecular target: GalNAc(b1-3)GalNAc
# In short: as §1
# [20] = molecular target: GalNAc(b1-4)GlcNAc
# In short: as §1
# [21] = molecular target: GalNAc(b1-4)GlcNAc(b1-2)Man(a1-3)[GalNAc(b1-4)GlcNAc(b1-2)Man(a1-6)]Man(b1-4)GlcNAc(b1-4)GlcNAc
# In short: as §1
# [22] = molecular target: Glc(a1-4)Glc
# In short: as §1
# [23] = molecular target: Glc(a1-6)Glc(a1-6)Glc
# In short: as §1
# [24] = molecular target: Glc(b1-4)Glc
# In short: as §1
# [25] = molecular target: Glc(b1-6)Glc
# In short: as §1
# [26] = molecular target: GlcA(b1-3)Gal
# In short: as §1
# [27] = molecular target: GlcA(b1-3)GlcNAc
# In short: as §1
# [28] = molecular target: GlcA(b1-6)Gal
# In short: as §1
# [29] = molecular target: GlcNAc(a1-3)Gal(b1-4)GlcNAc
# In short: as §1
# [30] = molecular target: GlcNAc(a1-4)Gal(b1-3)GlcNAc
# In short: as §1
# [31] = molecular target: GlcNAc(a1-4)Gal(b1-4)GalNAc
# In short: as §1
# [32] = molecular target: GlcNAc(a1-4)Gal(b1-4)GlcNAc
# In short: as §1
# [33] = molecular target: GlcNAc(a1-4)Gal(b1-4)GlcNAc(b1-3)Gal(b1-4)Glc
# In short: as §1
# [34] = molecular target: GlcNAc(a1-4)Gal(b1-4)GlcNAc(b1-3)Gal(b1-4)GlcNAc
# In short: as §1
# [35] = molecular target: GlcNAc(a1-4)Gal(b1-4)GlcNAc(b1-3)Gal(b1-4)GlcNAc(b1-3)Gal(b1-4)GlcNAc
# In short: as §1
# [36] = molecular target: GlcNAc(a1-4)Gal(b1-4)GlcNAc(b1-3)Gal(b1-4)[Fuc(a1-3)]GlcNAc(b1-3)Gal(b1-4)[Fuc(a1-3)]GlcNAc
# In short: as §1
# [37] = molecular target: GlcNAc(a1-6)Gal(b1-4)GlcNAc
# In short: as §1
# [38] = molecular target: GlcNAc(b1-2)Gal(b1-3)GalNAc
# In short: as §1
# [39] = molecular target: GlcNAc(b1-2)Man(a1-3)[GlcNAc(b1-2)Man(a1-6)]Man(b1-4)GlcNAc(b1-4)GlcNAc
# In short: as §1
# [40] = molecular target: GlcNAc(b1-2)Man(a1-3)[GlcNAc(b1-2)Man(a1-6)]Man(b1-4)GlcNAc(b1-4)[Fuc(a1-6)]GlcNAc
# In short: as §1
# [41] = molecular target: GlcNAc(b1-2)[GlcNAc(b1-4)]Man(a1-3)[GlcNAc(b1-2)Man(a1-6)]Man(b1-4)GlcNAc(b1-4)GlcNAc
# In short: as §1
# [42] = molecular target: GlcNAc(b1-3)Gal
# In short: as §1
# [43] = molecular target: GlcNAc(b1-3)Gal(b1-3)GalNAc
# In short: as §1
# [44] = molecular target: GlcNAc(b1-3)Gal(b1-4)Glc
# In short: as §1
# [45] = molecular target: GlcNAc(b1-3)Gal(b1-4)GlcNAc
# In short: as §1
# [46] = molecular target: GlcNAc(b1-3)Gal(b1-4)GlcNAc(b1-3)Gal(b1-4)GlcNAc
# In short: as §1
# [47] = molecular target: GlcNAc(b1-3)GalNAc
# In short: as §1
# [48] = molecular target: GlcNAc(b1-3)Man
# In short: as §1
# [49] = molecular target: GlcNAc(b1-3)[GlcNAc(b1-4)][GlcNAc(b1-6)]GlcNAc
# In short: as §1
# [50] = molecular target: GlcNAc(b1-3)[GlcNAc(b1-6)]Gal(b1-4)GlcNAc
# In short: as §1
# [51] = molecular target: GlcNAc(b1-3)[GlcNAc(b1-6)]GalNAc
# In short: as §1
# [52] = molecular target: GlcNAc(b1-4)Gal(b1-4)GlcNAc
# In short: as §1
# [53] = molecular target: GlcNAc(b1-4)GlcNAc
# In short: as §1
# [54] = molecular target: GlcNAc(b1-4)GlcNAc(b1-4)GlcNAc
# In short: as §1
# [55] = molecular target: GlcNAc(b1-4)GlcNAc(b1-4)GlcNAc(b1-4)GlcNAc(b1-4)GlcNAc
# In short: as §1
# [56] = molecular target: GlcNAc(b1-4)GlcNAc(b1-4)GlcNAc(b1-4)GlcNAc(b1-4)GlcNAc(b1-4)GlcNAc
# In short: as §1
# [57] = molecular target: GlcNAc(b1-4)[GlcNAc(b1-6)]GalNAc
# In short: as §1
# [58] = molecular target: GlcNAc(b1-6)Gal(b1-4)GlcNAc
# In short: as §1
# [59] = molecular target: GlcNAc(b1-6)GalNAc
# In short: as §1
# [60] = molecular target: GlcNAc3Prop(b1-4)GlcNAc
# In short: as §1
# [61] = molecular target: GlcNAc6S(b1-3)Gal(b1-4)GlcNAc
# In short: as §1
# [62] = molecular target: Kdn(a2-3)Gal(b1-3)GalNAc
# In short: as §1
# [63] = molecular target: Kdn(a2-3)Gal(b1-3)GlcNAc
# In short: as §1
# [64] = molecular target: Kdn(a2-3)Gal(b1-4)Glc
# In short: as §1
# [65] = molecular target: Kdn(a2-3)Gal(b1-4)GlcNAc
# In short: as §1
# [66] = molecular target: Kdn(a2-3)Gal(b1-4)[Fuc(a1-3)]GlcNAc
# In short: as §1
# [67] = molecular target: Kdn(a2-6)Gal(b1-4)GlcNAc
# In short: as §1
# [68] = molecular target: Man(a1-2)Man(a1-2)Man(a1-3)Man
# In short: as §1
# [69] = molecular target: Man(a1-2)Man(a1-2)Man(a1-6)[Man(a1-3)]Man
# In short: as §1
# [70] = molecular target: Man(a1-2)Man(a1-3)Man
# In short: as §1
# [71] = molecular target: Man(a1-2)Man(a1-3)[Man(a1-2)Man(a1-6)]Man
# In short: as §1
# [72] = molecular target: Man(a1-2)Man(a1-3)[Man(a1-2)Man(a1-6)]Man(a1-6)[Man(a1-2)Man(a1-2)Man(a1-3)]Man
# In short: as §1
# [73] = molecular target: Man(a1-2)Man(a1-3)[Man(a1-2)Man(a1-6)]Man(a1-6)[Man(a1-2)Man(a1-2)Man(a1-3)]Man(b1-4)GlcNAc(b1-4)GlcNAc
# In short: as §1
# [74] = molecular target: Man(a1-2)Man(a1-3)[Man(a1-6)]Man(a1-6)[Man(a1-2)Man(a1-3)]Man(b1-4)GlcNAc(b1-4)GlcNAc
# In short: as §1
# [75] = molecular target: Man(a1-2)Man(a1-6)[Man(a1-3)]Man(a1-6)[Man(a1-2)Man(a1-2)Man(a1-3)]Man
# In short: as §1
binder,measurement,setting,value
"cupB6 (Pseudomonas aeruginosa), Q02SP7 (protein) MSMRLFPGRVSLRRRPGAQARQALVLGLCCLTGGQAWALNEVALNCSFGNGKGLPWRVVNELTSGTAKGTVLFARPVSLFLSYKPQASQEAHELVLGGNWSGVGYPGPYGTVASDVKGIGYRISVDAQDGVKRVIPVDNQPHALDKRVTSFSGSTTSDYLQELVLTVDPGELPAGDLKVTSVSGSATLNLWAVDRLKGEASIGSVLAVPADNYPTGVCRKPYSLIGPASIAIGGGPPPPPIPKKCKVEVGREINVKLGSVALKNFPRVNDTSTERSFDISLSECAALAKPEIAFRDKYVSAQQADPTILSLKSGGAAGFGIVVKNGLDQQRIRFDGTPYPMRRVGDSADLPLSAAYIRIGAEGELKAGVADGAAEFTFTFP",glycan array binding signal (z-score),[1],-0.226
same,glycan array binding signal (z-score),[2],0.209
same,glycan array binding signal (z-score),[3],-0.09
same,glycan array binding signal (z-score),[4],-0.193
same,glycan array binding signal (z-score),[5],-0.237
same,glycan array binding signal (z-score),[6],-0.004
same,glycan array binding signal (z-score),[7],-0.327
same,glycan array binding signal (z-score),[8],-0.029
same,glycan array binding signal (z-score),[9],-0.098
same,glycan array binding signal (z-score),[10],-0.168
same,glycan array binding signal (z-score),[11],0.174
same,glycan array binding signal (z-score),[12],-0.173
same,glycan array binding signal (z-score),[13],0.065
same,glycan array binding signal (z-score),[14],-0.131
same,glycan array binding signal (z-score),[15],0.216
same,glycan array binding signal (z-score),[16],-0.13
same,glycan array binding signal (z-score),[17],-0.12
same,glycan array binding signal (z-score),[18],0.007
same,glycan array binding signal (z-score),[19],-0.138
same,glycan array binding signal (z-score),[20],-0.099
same,glycan array binding signal (z-score),[21],0.27
same,glycan array binding signal (z-score),[22],-0.049
same,glycan array binding signal (z-score),[23],-0.127
same,glycan array binding signal (z-score),[24],-0.188
same,glycan array binding signal (z-score),[25],-0.14
same,glycan array binding signal (z-score),[26],-0.087
same,glycan array binding signal (z-score),[27],-0.167
same,glycan array binding signal (z-score),[28],0.029
same,glycan array binding signal (z-score),[29],-0.184
same,glycan array binding signal (z-score),[30],-0.118
same,glycan array binding signal (z-score),[31],-0.083
same,glycan array binding signal (z-score),[32],0.139
same,glycan array binding signal (z-score),[33],0.057
same,glycan array binding signal (z-score),[34],0.017
same,glycan array binding signal (z-score),[35],-0.161
same,glycan array binding signal (z-score),[36],0.164
same,glycan array binding signal (z-score),[37],-0.197
same,glycan array binding signal (z-score),[38],-0.181
same,glycan array binding signal (z-score),[39],-0.061
same,glycan array binding signal (z-score),[40],0.318
same,glycan array binding signal (z-score),[41],-0.121
same,glycan array binding signal (z-score),[42],-0.046
same,glycan array binding signal (z-score),[43],-0.209
same,glycan array binding signal (z-score),[44],-0.188
same,glycan array binding signal (z-score),[45],-0.113
same,glycan array binding signal (z-score),[46],0.022
same,glycan array binding signal (z-score),[47],-0.094
same,glycan array binding signal (z-score),[48],-0.22
same,glycan array binding signal (z-score),[49],-0.001
same,glycan array binding signal (z-score),[50],-0.048
same,glycan array binding signal (z-score),[51],-0.097
same,glycan array binding signal (z-score),[52],-0.192
same,glycan array binding signal (z-score),[53],-0.037
same,glycan array binding signal (z-score),[54],-0.07
same,glycan array binding signal (z-score),[55],-0.039
same,glycan array binding signal (z-score),[56],-0.162
same,glycan array binding signal (z-score),[57],-0.217
same,glycan array binding signal (z-score),[58],-0.05
same,glycan array binding signal (z-score),[59],-0.194
same,glycan array binding signal (z-score),[60],-0.094
same,glycan array binding signal (z-score),[61],0.235
same,glycan array binding signal (z-score),[62],0.205
same,glycan array binding signal (z-score),[63],-0.105
same,glycan array binding signal (z-score),[64],0.27
same,glycan array binding signal (z-score),[65],-0.135
same,glycan array binding signal (z-score),[66],0.086
same,glycan array binding signal (z-score),[67],0.199
same,glycan array binding signal (z-score),[68],0.118
same,glycan array binding signal (z-score),[69],-0.141
same,glycan array binding signal (z-score),[70],0.328
same,glycan array binding signal (z-score),[71],-0.048
same,glycan array binding signal (z-score),[72],0.065
same,glycan array binding signal (z-score),[73],-0.203
same,glycan array binding signal (z-score),[74],0.006
same,glycan array binding signal (z-score),[75],-0.17
